According to the supplement of paper PMC9446081:
The campaign covered roughly 39,000 compounds. About 220 (0.56%) showed activity. The list shows a part of the results.

What follows are molecules tested on Escherichia coli K-12 BW25113 (assay: relative growth (OD600 normalised to plate interquartile mean) (fraction); higher = less growth inhibition, active = 0.2 or less). Conditions: 50 µM; LB; incubation time: overnight (16-24 h).
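Note: static incubation at 37 °C against the wild-type strain, values averaged over two biological replicates.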

Compound | relative growth
CCS(=O)(=O)N1C[C@]2(C1)CN([C@H](CO)c1[nH]c3cc(ccc3c12)OC)S(=O)(=O)c1cccc(c1)OC | inactive: 0.989
COC(=O)C1=C(C#N)NC(C)=C(C(=O)OC(C)C)C1c1cccc([N+](=O)[O-])c1 (stereo not given) | inactive: 1.04
O=C(C[C@@H]1CC[C@H]2[C@@H](COC[C@H](O)CN2S(=O)(=O)c2ccc(F)cc2)O1)NCCN1CCCCC1 | inactive: 0.979
C[C@@H]1CCCCO[C@@H](CN(C)S(=O)(=O)c2ccc(Cl)cc2)[C@@H](C)CN([C@@H](C)CO)C(=O)c2cc(NC(=O)Nc3cccc4ccccc34)ccc2O1 | inactive: 1.01
C[C@H](CO)N1C[C@H](C)[C@@H](CN(C)Cc2ccc(Cl)c(Cl)c2)Oc2ccc(NC(=O)Cc3cn(C)c4ccccc34)cc2C1=O | inactive: 0.991
C[C@@H]1CN([C@@H](C)CO)C(=O)c2cc(NC(=O)CCC(F)(F)F)ccc2O[C@@H](C)CCCCO[C@H]1CN(C)C(=O)NC1CCCCC1 | inactive: 0.994
C[C@H](CO)N1C[C@H](C)[C@@H](CN(C)S(=O)(=O)c2cccs2)Oc2ccc(NC(=O)Cc3ccccc3)cc2C1=O | inactive: 0.996
Cc1noc(C)c1NC(=O)Nc1ccc2c(c1)CC(=O)N([C@H](C)CO)C[C@H](C)[C@@H](CN(C)C(=O)Nc1ccc(C(F)(F)F)cc1)O2 | inactive: 0.992
C[C@H](CO)N1C[C@H](C)[C@@H](CN(C)Cc2ccc(C(=O)O)cc2)Oc2c(NC(=O)Nc3ccc(C(F)(F)F)cc3)cccc2C1=O | inactive: 0.993
CN(C)CC(=O)N[C@@H]1CC[C@@H](CCn2cc(CN(C)C)nn2)O[C@@H]1CO | inactive: 0.976
CC(C)NC(=O)Nc1ccc2c(c1)C(=O)N([C@H](C)CO)C[C@@H](C)[C@@H](CN(C)S(=O)(=O)c1ccc(Cl)cc1)O2 | inactive: 1.01
O=C(C[C@H]1CC[C@H](NC(=O)c2cnccn2)[C@H](CO)O1)NCc1ccccc1F | inactive: 0.984
O=C(C[C@H]1CC[C@H](NS(=O)(=O)c2ccccc2)[C@H](CO)O1)NCc1ccncn1 | inactive: 1.05
O=C(C[C@@H]1CC=CC[C@H](NC(=O)OCC2c3ccccc3-c3ccccc32)C(=O)OC[C@@H](Cc2c[nH]c3ccccc23)NC1=O)N[C@H](CO)Cc1ccccc1 | inactive: 0.937
C[C@H]1CCCCO[C@@H](CN(C)Cc2ccccc2)[C@@H](C)CN([C@@H](C)CO)C(=O)c2cc(NC(=O)NC3CCCCC3)ccc2O1 | inactive: 1.02
COc1ccccc1NCC(=O)NN | inactive: 1.01
C[C@@H]1CN([C@H](C)CO)C(=O)Cc2cc(NC(=O)CCCN(C)C)ccc2O[C@@H]1CN(C)S(=O)(=O)c1cccs1 | inactive: 0.977
COc1ccc(NC(=O)N(C)C[C@H]2OCCCC[C@H](C)Oc3ccc(NS(=O)(=O)c4ccc(Cl)cc4)cc3C(=O)N([C@@H](C)CO)C[C@@H]2C)cc1 | inactive: 1.04
Nc1ccc(C(=O)[O-])cc1.[K+] | inactive: 1.01
C=C(C)C1CCC2(CO)CCC3(C)C(CCC4C5(C)CCC(O)C(C)(C)C5CCC43C)C12 (stereo not given) | inactive: 0.915

Compound | relative growth
C[C@H]1CCCCO[C@@H](CN(C)Cc2ccncc2)[C@@H](C)CN([C@@H](C)CO)C(=O)c2cc(NC(=O)Nc3ccc(C(F)(F)F)cc3)ccc2O1 | inactive: 1.08
O=C(CN1CCOCC1)NCC[C@H]1CC[C@@H](NC(=O)Nc2ccccc2)[C@@H](CO)O1 | inactive: 1.01
COc1ccc(-c2cc(=O)c3c(O)cc(O[C@@H]4O[C@H](CO[C@@H]5O[C@@H](C)[C@H](O)[C@@H](O)[C@H]5O)[C@@H](O)[C@H](O)[C@H]4O)cc3o2)cc1O | inactive: 1.05
COc1ccc(NC(=O)Nc2ccc3c(c2)C(=O)N([C@@H](C)CO)C[C@@H](C)[C@H](CN(C)S(=O)(=O)c2ccc(C)cc2)OCCCC[C@H](C)O3)cc1 | inactive: 1.01
COc1ccc(OC)c(S(=O)(=O)NC(=O)[C@@]2(C)CCN2C(=O)Cc2ccc(Cl)cc2Cl)c1 | inactive: 0.994
CS(=O)(=O)CC(=O)N1C[C@H]2COC[C@@]2(COc2ccccn2)C1 | inactive: 0.993
COc1ccc(-c2cnc3c(c2)C(=O)N([C@H](C)CO)C[C@H](C)[C@H](CN(C)S(=O)(=O)c2cn(C)cn2)O3)cc1 | inactive: 0.967
C[C@H](CO)N1C[C@H](C)[C@H](CN(C)Cc2ccc(C(=O)Nc3ccccc3N)cc2)Oc2c(NC(=O)Nc3ccccc3)cccc2C1=O | inactive: 0.982
C[C@@H]1CN([C@@H](C)CO)C(=O)c2cccc(NC(=O)C3CCOCC3)c2O[C@@H]1CN(C)Cc1ccccc1 | inactive: 0.911
C[C@@H]1CN([C@@H](C)CO)C(=O)c2cc(C#CCN(C)C)cnc2O[C@H]1CN(C)C(=O)Nc1cccc(F)c1 | inactive: 1.03
N[C@@H](CS(=O)O)C(=O)O | inactive: 0.978
COc1ccc([C@@H]([C@H](Cc2ccccc2)OC(C)=O)N2C[C@@H]3[C@H]([C@@H]2Cc2ccccc2)N(C)O[C@@]3(O)[C@@H](O)c2ccccc2)cc1 | inactive: 1.03
CC(C)NC(=O)Nc1ccc2c(c1)C(=O)N([C@H](C)CO)C[C@H](C)[C@@H](CN(C)C(=O)C1CCCCC1)OCCCC[C@@H](C)O2 | inactive: 0.984
COc1ccc(NC(=O)N2C[C@@H](O)COC[C@H]3O[C@@H](CC(=O)NCc4ccccc4OC)CC[C@@H]32)cc1 | inactive: 1.01
C[C@@H]1CCCCO[C@H](CN(C)Cc2ccc(C(F)(F)F)cc2)[C@@H](C)CN([C@@H](C)CO)C(=O)c2cc(NS(=O)(=O)c3ccc(F)cc3)ccc2O1 | inactive: 1.03
C[C@@H]1CN([C@@H](C)CO)C(=O)CCCn2cc(nn2)CO[C@@H]1CN(C)Cc1cccc2c1OCCCO2 | inactive: 1.01
C[C@@H]1CN([C@H](C)CO)C(=O)c2cc(NC(=O)Nc3ccc(C(F)(F)F)cc3)ccc2O[C@H]1CN(C)Cc1ccncc1 | inactive: 0.916
CN(C)CCCNC(=O)C[C@H]1CC[C@H]2[C@@H](COC[C@@H](O)CN2C(=O)Nc2cc(Cl)cc(Cl)c2)O1 | inactive: 0.986
O=C(NO)c1cccc(C(=O)N/N=C/c2cc(I)cc(I)c2O)c1 | inactive: 0.89
Nc1nc(=O)n([C@@H]2O[C@H](CO)[C@@H](O)[C@H]2O)cc1CO | inactive: 0.986

Compound | relative growth
COc1ccc(S(=O)(=O)N(C)C[C@@H]2Oc3ccc(N(C)C)cc3CC(=O)N([C@H](C)CO)C[C@@H]2C)cc1 | inactive: 0.974
COCC(=O)N1CC[C@]2(CC1)CN(Cc1cccc(c1)OC)[C@@H](CO)c1c2c2ccc(cc2n1C)OC | inactive: 1.01
C[C@@H]1CN([C@H](C)CO)C(=O)c2cccc(NC(=O)C3CCCCC3)c2O[C@H]1CN(C)Cc1ccc(Oc2ccccc2)cc1 | inactive: 0.978
COc1ccc(NC(=O)N(C)C[C@@H]2OCCCC[C@@H](C)Oc3ccc(NC(=O)Nc4ccccc4)cc3C(=O)N([C@@H](C)CO)C[C@@H]2C)cc1 | inactive: 1.04
C#Cc1ccc(C(=O)NO)s1 | inactive: 0.952
C[C@H](CO)N1C[C@H](C)[C@@H](CN(C)S(C)(=O)=O)OCCCC[C@H](C)Oc2ccc(NS(C)(=O)=O)cc2C1=O | inactive: 1
COc1ccc([Si](C)(C)[C@H]2[C@H](CCO)O[C@@]3(C(=O)N(Cc4cccc(N5C(=O)c6cccc7cccc5c67)c4)c4ccccc43)[C@@H]2C)cc1 | inactive: 1.05
Cc1noc(C)c1NC(=O)Nc1ccc2c(c1)CC(=O)N([C@H](C)CO)C[C@@H](C)[C@H](CN(C)CC1CC1)O2 | inactive: 1.02
Cc1noc(C)c1NC(=O)Nc1ccc2c(c1)C(=O)N([C@H](C)CO)C[C@H](C)[C@@H](CN(C)S(=O)(=O)c1ccccc1)OCCCC[C@@H](C)O2 | inactive: 1.01
C[C@H](CO)N1C[C@H](C)[C@H](CN(C)C(=O)Nc2ccc(F)cc2)Oc2c(NC(=O)c3nc4ccccc4s3)cccc2C1=O | inactive: 1.03
C[C@@H]1CN([C@@H](C)CO)C(=O)c2c(c3ccccc3n2C)-c2ccccc2CO[C@H]1CN(C)C(=O)c1cc(Cl)cc(Cl)c1 | inactive: 0.998
COC(=O)[C@@H](C)N(C#N)c1nc(C)cc(C)n1 | inactive: 1.01
C[C@H]1CN([C@@H](C)CO)C(=O)c2cccc(NC(=O)C3CCCCC3)c2O[C@H]1CN(C)Cc1ccc(C(F)(F)F)cc1 | inactive: 0.979
C[C@@H]1CCCCO[C@@H](CN(C)Cc2ccc(C(F)(F)F)cc2)[C@@H](C)CN([C@@H](C)CO)C(=O)c2cc(NC(=O)Nc3ccccc3)ccc2O1 | inactive: 0.926
COCC(=O)Nc1ccc2c(c1)OC[C@@H](C)N(Cc1ccccc1F)C[C@@H](C)[C@@H](OC)CN(C)C2=O | inactive: 1.02
CC(=O)Nc1ccc(CN(C)c2c(C)nc3ccc(C(=O)N4CCN(C(=O)c5ccco5)CC4)cn23)cc1 | inactive: 0.985
C[C@@H]1CN([C@H](C)CO)C(=O)c2cccc(NC(=O)Nc3ccccc3)c2O[C@H]1CN(C)Cc1ccc(Cl)c(Cl)c1 | inactive: 0.995
COCC(=O)N1CC[C@]2(CC1)CN([C@@H](CO)c1[nH]c3cc(ccc3c12)OC)S(=O)(=O)C | inactive: 1.02
C[C@@H]1CCCCO[C@H](CN(C)Cc2ccncc2)[C@H](C)CN([C@H](C)CO)C(=O)c2cc(NS(C)(=O)=O)ccc2O1 | inactive: 0.982
C[C@H]1CN([C@@H](C)CO)C(=O)c2cccc(NC(=O)CCCCCC(=O)Nc3ccccc3N)c2O[C@H]1CN(C)C(=O)Nc1ccccc1 | inactive: 0.983
